Values of other authors, collected in patent US20150224177A1 (priority 2014, published 2015).

Conditions: instability of the chemical species; cited from earlier work

N#CSO [OSCN^−, hypothiocyanite]
half-life: about 24 hours
